Experimental data published in publication PMC12136788.
The other results are listed elsewhere or left out.

B1: chr3:41277855:41277856:+_ENSG00000168036_ENST00000349496|hu_hu|FALSE|FALSE (ssRNA)
RNA: GGGAGUUCUACAGUCCGACGAUCUUCAAUAGCUUCUGCAGCUUCCUUGUCCUGAGCAAGUUCACAGAGGACCCCUGCAGCUACUCUUUGGAUGUUUUCAAUGGGAGAAUAAAGCAGCUGCACAAACAAUGGAAUGGUAUUUAGCAACAGAGGAUUGAGCAUCA
B2: 66377282_66378621_497_3pUTR_ENSG00000166479_ENST00000299608|human|control|control (ssRNA)
RNA: GGGAGUUCUACAGUCCGACGAUCUCCAACCUUAACUGGAGAACCAAUGCUUUUCAUCUCAAGACCAACUUCAUUCCAAAUUGGUUCCAGCUUUUUACAAUGGCCACACCAUGGCGCAUAAAAAUCUACAAGCCAAAUGUCAUCCAACAGAGGAUUGAGCAUCA
B3: chr2:232597714:232597715:-_ENSG00000156973_ENST00000287600|hu_mus|FALSE|FALSE (ssRNA)
RNA: GGGAGUUCUACAGUCCGACGAUCGAAAAGCCUCACUUUGGAUGUGCUGACAAGAAGAUCAUCGUCAAAGAACUUUGUCUCUAUGAUGACAUUGCCCGUUAGGACGCUGGCGGGCAUCAUCUGGGACUCAGGCGCUGCUUCUAUCAACAGAGGAUUGAGCAUCA
B4: chr11:79222206:79222207:+_ENSMUSG00000020716_ENSMUST00000071325|mus_mus|FALSE|FALSE (ssRNA)
RNA: GGGAGUUCUACAGUCCGACGAUCCUUUGUAAAUUCAUCCGGAUAAUUUUCUACCCAGUUCCAAAAAGCCUUUUCUAGGCUAUUUAUAACUGCCAACUGUGCAACCUUCUUCAGGGCUUUAAAUUUAAAUGCUGUUUCCUUCAGCAACAGAGGAUUGAGCAUCA
B5: chr12:27888400:27888401:+_ENSG00000061794_ENST00000081029|hu_hu|FALSE|FALSE (ssRNA)
RNA: GGGAGUUCUACAGUCCGACGAUCGGUCUUGCAGUAUCGCUCUCCUACAAGUUUAAUUAAUUUCUUCUUUGCGUGAUCAUCUAAAUUCAAACUGGAAAGCUUUACUCUUAAGACUACUACUCGUGCUCUGGGGUUCCGAACAGACAACAGAGGAUUGAGCAUCA
B6: chr6:136600977:136600978:-_ENSG00000029363_ENST00000527536|hu_mus|motif|central (ssRNA)
RNA: GGGAGUUCUACAGUCCGACGAUCCGAGACCUAGAACUGUAUCUCUUCUUUCUAGAAUGUGAUCUUGAUCUUGAUCGGGAACGGGACUGUGAUCUAGACUUGGAUCUUGAAGAAUGUGAUCUAGAAUUGGAGCGGCCCAUUUCUCAACAGAGGAUUGAGCAUCA
B7: chr12:39756943:39756944:-_ENSG00000139116_ENST00000544797|hu_mus|hu_hu_hu_mus_False|98_108 (ssRNA)
RNA: GGGAGUUCUACAGUCCGACGAUCGGUUUGGCUAUUACCCCCGAGGGAAUCCUGCAAGAGUCUUGUCAGCUUAGAGUCUCUGUAAGGGACAUGGGUGGCUCUCUUGCUCUUGUCCCCCAAGGCGCUGAUUACAUUCCCAAGAGCCAACAGAGGAUUGAGCAUCA
B8: chr5:37680062:37680063:+_ENSMUSG00000029121_ENSMUST00000031004|mus_hu|mus_mus_mus_hu_False|38_58 (ssRNA)
RNA: GGGAGUUCUACAGUCCGACGAUCUUUGGGUGUAGCUGGUACCUCGUACACAGGACCGUCAUACAUGCCCCUGGAAACACUAUGCAAUCCAAAAACCUUGCUUCUGAUUUUGACGCGCUGGUACAGGUGCUCCGGGAACGCCUUCAACAGAGGAUUGAGCAUCA
B9: chr2:73747422:73747423:-_ENSMUSG00000018770_ENSMUST00000018914|mus_mus|FALSE|FALSE (ssRNA)
RNA: GGGAGUUCUACAGUCCGACGAUCCAGCUGACACACACCAUUCUGGGCCCCAUUAAAAACUGUAGAGCCCUCUCCAGUCCUAGUCUCUGGCCGAGAUAACACUGAUGCAGAAAUUGGUCUAUAUGCAACUCUGGAUCCAGCUCGCAACAGAGGAUUGAGCAUCA
B10: 98272209_98272773_3538_CDS_ENSMUSG00000036550_ENSMUST00000098473|mouse|control|control (ssRNA)
RNA: GGGAGUUCUACAGUCCGACGAUCCUCUUGAAUAUUUUCUGGGGGCUCCACAAUCCUCUCAGUUUGAUCUGUGGCCACAAGCAAUGUAUCGAUAUUUGUUGUAUUUAUAGAAGGUGGCACAUCUUUCUUAAAGCUGACUCCCGUCAACAGAGGAUUGAGCAUCA
B11: chr13:99559765:99559766:-_ENSMUSG00000041685_ENSMUST00000040340|mus_hu|FALSE|FALSE (ssRNA)
RNA: GGGAGUUCUACAGUCCGACGAUCCUGAACUUCCUUUAUUAAUUCUUGUAAUUUUCUAACAAGAUCCAAGUGACAAUUUGCUAAUUUCUCUGUAGAUGUUUUGAAUACAUCCCAUACUGGUGCAAAUGUUCCAAGUUGUGAAUACAACAGAGGAUUGAGCAUCA
B12: chr3:176740097:176740098:-_ENSG00000177565_ENST00000430069|hu_mus|hu_hu_hu_mus_True|1_38 (ssRNA)
RNA: GGGAGUUCUACAGUCCGACGAUCUGUUUUGUAUACCACAAAAGGAGGCACUUUCAGUAUCUGCAAAAGGUGUUUAGUCCUAAAACAUACUCACCUAGAGAAUAAUUCAGGAAAACAAUCUGUUACACUCUAAGACCUUAGGAACAACAGAGGAUUGAGCAUCA
B13: chr12:57918738:57918739:+_ENSG00000166987_ENST00000355673|hu_mus|FALSE|FALSE (ssRNA)
RNA: GGGAGUUCUACAGUCCGACGAUCUGCAGGCCCCACCCCAGCCCCACCCGGGGUCACCGGGGCCAGAGGGUCAAAGUUGAAAACCUUGGGUACAUUAAGUGGACACUCCAGACCGCACUUGCAGGUCCCAUCGCUGAGGAGGUACAACAGAGGAUUGAGCAUCA
B14: chr6:13622506:13622507:-_ENSG00000010017_ENST00000011619|hu_hu|FALSE|FALSE (ssRNA)
RNA: GGGAGUUCUACAGUCCGACGAUCCUAGGAAGCAAUGUAAAGCGACAAAAACCUGUCCCCAGUACAUAAUUUAAAAAAUCUAAAUUUCAAAUCAGCAGAGCUGGUCUACUUCCAUGUUGACUAUAUGCCACAAUAUAAGUGUGACAACAGAGGAUUGAGCAUCA
B15: chr9:69870353:69870354:+_ENSMUSG00000033543_ENSMUST00000118198|mus_mus|FALSE|FALSE (ssRNA)
RNA: GGGAGUUCUACAGUCCGACGAUCCGGGACCCUGGGUAGUAGAUAUAGCACAGUGUUGUCAUUUCUGCACCGUGAGAAUAAAUAAAAAAAAGUCUCUUCCAUGUUUCUCUUCAAAAAGCGAUGAAAAUAACAGAAGGUGGCAUACAACAGAGGAUUGAGCAUCA
B16: chr9:95013113:95013114:-_ENSG00000196305_ENST00000443024|hu_hu|hu_hu_hu_mus_False|1_18 (ssRNA)
RNA: GGGAGUUCUACAGUCCGACGAUCCUCAGUCAGAAAGGGCGUGUAAGGGGCCAUCAGUCUGCACAGAGAAAGCAGGACACUGAACAGUGUCUCCAGAGCCAUGACACAGUCUUCCACCCCAUUUUCACCCUUUAACCUUCUGCGCAACAGAGGAUUGAGCAUCA
B17: chr10:124922180:124922181:+_ENSG00000154473_ENST00000368858|hu_hu|FALSE|FALSE (ssRNA)
RNA: GGGAGUUCUACAGUCCGACGAUCCCCAUCAUUACUGAAGGCAAGUGAUGCGAUGCUCGUGGGGUACCGAUGGAAUUGGCACAGUCGCUUUUUGUUAAAUGGAUCCCAAAUAUUUACAAAGCCAUCAGAACCACCUGUGGCAAACAACAGAGGAUUGAGCAUCA
B18: chr10:62544570:62544571:+_ENSG00000170312_ENST00000395284|hu_hu|motif|central (ssRNA)
RNA: GGGAGUUCUACAGUCCGACGAUCACUGACUAUAUUUGGAUGACGAAGUUCCUUUAAUAGAGAAAUUUCCCGAAUUGCAGUACGGGGAACCCCUUCCUCUUCACUUUCUAGUCUGAUUUUUUUCAUGGCUACCACUUGACCUGUCAACAGAGGAUUGAGCAUCA
B19: chr7:140404665:140404666:+_ENSG00000090266_ENST00000247866|hu_hu|hu_hu_hu_mus_False|18_108 (ssRNA)
RNA: GGGAGUUCUACAGUCCGACGAUCUGCGUACAGAGUGCCAGAGAGUUUACAGUGUCAGUCCUCGUCAUCAGGAGGGAUUCCCAGUUCUUCAUCUGUCCACUGUGAAGGAUCUGGAUACGGAAAGUGACCCAGCACAGCAUCCGACAACAGAGGAUUGAGCAUCA
B20: chr6:160100356:160100357:-_ENSG00000112096_ENST00000546260|hu_hu|motif|central (ssRNA)
RNA: GGGAGUUCUACAGUCCGACGAUCGCUGGGAUCAUUAGGGUAUGACUGAAAGUGAGAAACAGUAAUUUGUAAAACAUUUACCGGAUAAUAGCUUUCCCAAACAGUACUUCCCCUGGAAUUAAAACAGGAAAUACAAUUUAUGUUCAACAGAGGAUUGAGCAUCA
B21: 176794798_176794918_1371_3pUTR_ENSG00000144320_ENST00000272748|human|control|control (ssRNA)
RNA: GGGAGUUCUACAGUCCGACGAUCUCUCUUGUUUCUCCUCUGGUUCCUCUGAGUCAGAUGCUUUUUCAAUCACUUGGUUUGUCUGUUCUGUAGCUGGUAUUUUGUCAUCUGUCUGCUCUGUAUUAUCAUCAAGAACAUCGUGUUCAACAGAGGAUUGAGCAUCA
B22: chr17:57724971:57724972:+_ENSG00000141367_ENST00000269122|hu_mus|FALSE|FALSE (ssRNA)
RNA: GGGAGUUCUACAGUCCGACGAUCCUGUGCAGAUAUGCCAGUGAGAAGCAACCAUUUCUGCUUUGCAUCUGUACGGUAAUUGAUGAUCUGGCAUCCUGCGAGGCUAGAAUGACGAUCAAACAUUUUCACUGGCUGAGACUCUCCCAACAGAGGAUUGAGCAUCA

The binders below were run against T1, UNK ZnF1-3 (human, UniProt Q9C0B0 31-174) (assay: nsRBNS (natural sequence RNA bind-n-seq); RBNS binding buffer (assumed for nsRBNS): 25 mM Tris pH 7.5, 150 mM KCl, 3 mM MgCl2, 0.01% Triton X-100, 500 ug/ml BSA, 20 U/ml SUPERase-In, 4 C; UNK is unkempt and MSI1 is Musashi-1; names of the RNAs are library labels; protein concentration not given here; high values mean tight binding).
T1 sequence: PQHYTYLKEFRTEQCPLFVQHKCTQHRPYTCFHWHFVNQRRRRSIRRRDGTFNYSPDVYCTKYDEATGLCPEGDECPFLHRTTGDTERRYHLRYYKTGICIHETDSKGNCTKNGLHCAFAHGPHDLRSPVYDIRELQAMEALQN

Binder | binding signal [enrichment R]
B1 | 1.14
B2 | 0.757
B3 | 0.875
B4 | 0.978
B5 | 0.63
B6 | 0.477
B7 | 0.692
B8 | 0.731
B9 | 1.23
B10 | 0.788
B11 | 0.704
B12 | 0.645
B13 | 1.33
B14 | 1.29
B15 | 1.48
B16 | 0.992
B17 | 1.03
B18 | 0.482
B19 | 1.3
B20 | 1.68
B21 | 0.345
B22 | 0.927
